From the supplement of paper PMC4604168 (melanoma cell lines)
This is one part of the list. Single values are uncertain, as repeats are few or missing.
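Note: cell number obtained by counting DAPI-stained nuclei in high-throughput microscope images with image analysis software, screen run in 1,536-well plates.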

What follows are compounds tested on SkMel30 (assay: cell count relative to DMSO control; melanoma cells; higher = more viable cells). Conditions: library dose: low library concentration; 72 h.
With `C[C@]12O[C@H](C[C@]1(O)CO)n1c3ccccc3c3c4c(c5c6ccccc6n2c5c31)CNC4=O` [Lestaurtinib] + NC1(c2ccc(-c3nc4ccn5c(=O)[nH]nc5c4cc3-c3ccccc3)cc2)CCC1 [MK2206] (first compound 0.004 µM, partner dose 0.4 µM) the cell count was 53.5%.
`C[C@]12O[C@H](C[C@]1(O)CO)n1c3ccccc3c3c4c(c5c6ccccc6n2c5c31)CNC4=O` [Lestaurtinib] + C[C@]1(O)C[C@@H](c2nc(-c3ccc4ccc(-c5ccccc5)nc4c3)c3c(N)nccn32)C1 [OSI906] (first compound 0.004 µM, partner dose 0.4 µM) was tested, and the cell count was 77.4%.
Compound `C[C@]12O[C@H](C[C@]1(O)CO)n1c3ccccc3c3c4c(c5c6ccccc6n2c5c31)CNC4=O` [Lestaurtinib] + C=C(c1ccc(C(=O)O)cc1)c1cc2c(cc1C)C(C)(C)CCC2(C)C [Bexarotene] (first compound 0.004 µM, partner dose 2 µM) has a cell count of 87.6%.
`C[C@]12O[C@H](C[C@]1(O)CO)n1c3ccccc3c3c4c(c5c6ccccc6n2c5c31)CNC4=O` [Lestaurtinib] + CN1CCN(c2ccc3nc(-c4c(N)c5c(F)cccc5[nH]c4=O)[nH]c3c2)CC1 [Dovitinib] (first compound 0.004 µM, partner dose 0.1 µM) showed a cell count of 71.3%.
Work on `C[C@]12O[C@H](C[C@]1(O)CO)n1c3ccccc3c3c4c(c5c6ccccc6n2c5c31)CNC4=O` [Lestaurtinib] + CCCCCCCCc1ccc(CCC(N)(CO)CO)cc1 [fingolimod] (first compound 0.004 µM, partner dose 2 µM) yielded a cell count of 84.3%.
